The other results are listed elsewhere or left out. Most values come without repeats; read them as rough.
Legend:
Test in all cases: cell count relative to DMSO control; melanoma cells; higher = more viable cells
Settings in all cases: library dose: standard library concentration; 72 h
[1] = test system: A101D
[2] = test system: A2058
[3] = test system: A375
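Also: cells treated in 1,536-well plates, then fixed and DAPI-stained, with nuclei counted from automated high-throughput microscope images.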

Molecule Cc1cn(-c2cc(NC(=O)c3ccc(C)c(Nc4nccc(-c5cccnc5)n4)c3)cc(C(F)(F)F)c2)cn1 [nilotinib] + Cc1ccc(NC(=O)c2cccc(N(C)C)c2)cc1NC(=O)c1ccc(O)cc1 [ZM336372] (first compound 1 µM, partner dose 10 µM) has a cell count [1] of 90.1%, a cell count [2] of 137% and a cell count [3] of 118%.
Molecule Cc1cn(-c2cc(NC(=O)c3ccc(C)c(Nc4nccc(-c5cccnc5)n4)c3)cc(C(F)(F)F)c2)cn1 [nilotinib] + Cn1c(=O)n(-c2ccc(C(C)(C)C#N)cc2)c2c3cc(-c4cnc5ccccc5c4)ccc3ncc21 [NVP-BEZ235] (first compound 1 µM, partner dose 0.02 µM) has a cell count [1] of 81.2%, a cell count [2] of 74.1% and a cell count [3] of 81.8%.
Cc1cn(-c2cc(NC(=O)c3ccc(C)c(Nc4nccc(-c5cccnc5)n4)c3)cc(C(F)(F)F)c2)cn1 [nilotinib] + C#Cc1cccc(Nc2ncnc3cc(OCCOC)c(OCCOC)cc23)c1 [erlotinib] (first compound 1 µM, partner dose 4 µM) showed a cell count [1] of 65.6%, a cell count [2] of 97.4% and a cell count [3] of 137%.
Work on Cc1cn(-c2cc(NC(=O)c3ccc(C)c(Nc4nccc(-c5cccnc5)n4)c3)cc(C(F)(F)F)c2)cn1 [nilotinib] + CCN(CC)CCNC(=O)c1c(C)[nH]c(/C=C2\C(=O)Nc3ccc(F)cc32)c1C [sunitinib] (first compound 1 µM, partner dose 2 µM) yielded a cell count [1] of 65.6%, a cell count [2] of 81% and a cell count [3] of 109%.
Cc1cc(Nc2cc(N3CCN(C)CC3)nc(/C=C/c3ccccc3)n2)n[nH]1 + CC(=O)c1c(C)c2cnc(Nc3ccc(N4CCNCC4)cn3)nc2n(C2CCCC2)c1=O [palbociclib] (first compound 0.2 µM, partner dose 0.2 µM) showed a cell count [1] of 61.5%, a cell count [2] of 94.9% and a cell count [3] of 69.3%.
